This is one part of the list. For part of these data: At the low end of the ranking the order means little. For part of these data: Measured with an extract: partners may take part in the binding.
Key:
Settings in all cases: 20 mM HEPES pH 7.9, 100 mM NaCl, 1 mM DTT, 0.2 mg/mL BSA, 0.02% Triton X-100, 2% milk, 0.4 mg/mL salmon testes DNA; 1 h; temperature not stated; high values mean tight binding; double strand, one strand shown; sequences stand for … in GCCTAGCAC…GTGCTAGGTCTTGATTCGCTTGACGCTGCTG
PU.1 (IVT) = PU.1 (IVT) (UniProt P17947); assay: protein-binding microarray (PBM)
[1] = target: PU.1 (endogenous, THP-1 nuclear extract) (UniProt P17947); assay: nuclear extract protein-binding microarray (nextPBM)
[2] = target: T1, FLI1 (endogenous, THP-1 nuclear extract) (UniProt Q01543); assay: as above
T1 sequence: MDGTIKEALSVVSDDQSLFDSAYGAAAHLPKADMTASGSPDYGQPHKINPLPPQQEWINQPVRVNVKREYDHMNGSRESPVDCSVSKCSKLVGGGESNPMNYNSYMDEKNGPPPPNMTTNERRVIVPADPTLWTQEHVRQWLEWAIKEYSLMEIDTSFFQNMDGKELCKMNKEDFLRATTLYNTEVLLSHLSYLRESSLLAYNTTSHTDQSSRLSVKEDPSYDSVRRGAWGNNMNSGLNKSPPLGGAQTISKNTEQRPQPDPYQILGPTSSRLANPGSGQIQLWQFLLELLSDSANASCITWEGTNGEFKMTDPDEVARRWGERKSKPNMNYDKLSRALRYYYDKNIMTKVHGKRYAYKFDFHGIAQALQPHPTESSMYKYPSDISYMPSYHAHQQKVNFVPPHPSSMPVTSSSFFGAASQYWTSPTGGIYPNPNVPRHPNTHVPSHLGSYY

ATAAAGAGGAAGTGGCTAGG showed a binding signal (PU.1 (IVT)) of 7.2 z-score, a binding signal [1] of 7.13 z-score and a binding signal [2] of 3.66 z-score.

TGAAAAAGGAAGTGCAACCA gave a binding signal (PU.1 (IVT)) of 4.61 z-score, a binding signal [1] of 4.62 z-score and a binding signal [2] of 2.5 z-score.

Work on AGGATGAGGAACTGAAAATG yielded a binding signal (PU.1 (IVT)) of 4.02 z-score, a binding signal [1] of 4.14 z-score and a binding signal [2] of 1.44 z-score.

CAAAAAGAGAAGTGGATGCT gave a binding signal (PU.1 (IVT)) of 3.05 z-score, a binding signal [1] of 3.1 z-score and a binding signal [2] of 0.637 z-score.

In the case of TTTAGGAGGAACTGTGAGGT, the binding signal (PU.1 (IVT)) is reported as 2.26 z-score, the binding signal [1] is reported as 1.95 z-score and the binding signal [2] is reported as 0.824 z-score.

For TTAAAGGGGAAGTTAAGTTT, the binding signal (PU.1 (IVT)) was 6.86 z-score, the binding signal [1] was 6.74 z-score and the binding signal [2] was 2.73 z-score.

With CAGATGGGGAAGTGAGAAAG the binding signal (PU.1 (IVT)) was 4.71 z-score, the binding signal [1] was 5.31 z-score and the binding signal [2] was 1.94 z-score.

With GGAAGGGGGAAGTGGTGCAG the binding signal (PU.1 (IVT)) was 4.41 z-score, the binding signal [1] was 4.69 z-score and the binding signal [2] was 1.94 z-score.

Sequence GAAAAGGGGAAGTGGGCTCA has a binding signal (PU.1 (IVT)) of 7.7 z-score, a binding signal [1] of 7.32 z-score and a binding signal [2] of 4.3 z-score.

With TGAAACAGGAAGTACTGTGA the binding signal (PU.1 (IVT)) was 6.92 z-score, the binding signal [1] was 6.81 z-score and the binding signal [2] was 4.91 z-score.

Sequence GAAATGGGGAAGTGACTAAA has a binding signal (PU.1 (IVT)) of 7.2 z-score, a binding signal [1] of 7.11 z-score and a binding signal [2] of 3.17 z-score.

AGAAGAAGGAAGTACTGTGA showed a binding signal (PU.1 (IVT)) of 4.7 z-score, a binding signal [1] of 4.77 z-score and a binding signal [2] of 2.04 z-score.

With AGAAAGAGGAAGTGACTTGC the binding signal (PU.1 (IVT)) was 8.54 z-score, the binding signal [1] was 7.37 z-score and the binding signal [2] was 3.97 z-score.

ACAAAATGGAACTGTGCCCC gave a binding signal (PU.1 (IVT)) of 0.102 z-score, a binding signal [1] of 0.136 z-score and a binding signal [2] of 0.258 z-score.

With GAAGAGAGGAAGTGACTCCC the binding signal (PU.1 (IVT)) was 5.07 z-score, the binding signal [1] was 5.33 z-score and the binding signal [2] was 3.23 z-score.

Work on CAGAAGAGGAAGTCAGAGAG yielded a binding signal (PU.1 (IVT)) of 5.31 z-score, a binding signal [1] of 6.17 z-score and a binding signal [2] of 2.87 z-score.

Work on TGAAACAGGAAGTGTGTGTT yielded a binding signal (PU.1 (IVT)) of 6.39 z-score, a binding signal [1] of 6.42 z-score and a binding signal [2] of 5.28 z-score.

In the case of ACTAAGAGGAAGTGGTATCT, the binding signal (PU.1 (IVT)) is reported as 5.71 z-score, the binding signal [1] is reported as 6.32 z-score and the binding signal [2] is reported as 3.31 z-score.

GCAGTAGGGAAGTGGAGCAT showed a binding signal (PU.1 (IVT)) of 3.12 z-score, a binding signal [1] of 2.76 z-score and a binding signal [2] of 1.29 z-score.

With AAAAAAAGGAACTGGCTATA the binding signal (PU.1 (IVT)) was 4.33 z-score, the binding signal [1] was 4.16 z-score and the binding signal [2] was 1.69 z-score.

In the case of GGAAAAAGGAAGTGAGGCAT, the binding signal (PU.1 (IVT)) is reported as 5.39 z-score, the binding signal [1] is reported as 5.71 z-score and the binding signal [2] is reported as 3.16 z-score.

For GATAAGAGGGAGTCCTCTGT, the binding signal (PU.1 (IVT)) was -0.726 z-score, the binding signal [1] was -0.196 z-score and the binding signal [2] was -0.395 z-score.

For AAATAGAGGAAGTGCTTATA, the binding signal (PU.1 (IVT)) was 7.29 z-score, the binding signal [1] was 7.1 z-score and the binding signal [2] was 3.59 z-score.

Work on AGAAACAGGAAGAGAGAGCA yielded a binding signal (PU.1 (IVT)) of 2.85 z-score, a binding signal [1] of 3.58 z-score and a binding signal [2] of 2.52 z-score.

AAAAAAAAGAACTGGCTAGA was tested, and the binding signal (PU.1 (IVT)) was 0.758 z-score, the binding signal [1] was 0.607 z-score and the binding signal [2] was -0.0256 z-score.

TAGAAGAGGAAGTGAGAGAC showed a binding signal (PU.1 (IVT)) of 5.64 z-score, a binding signal [1] of 6.16 z-score and a binding signal [2] of 3 z-score.

GAAAACAGGAAGTCCCATAG was tested, and the binding signal (PU.1 (IVT)) was 6.82 z-score, the binding signal [1] was 7.04 z-score and the binding signal [2] was 4.63 z-score.

With ACAATAAGGAAGTGTCTGCC the binding signal (PU.1 (IVT)) was 4.42 z-score, the binding signal [1] was 4.26 z-score and the binding signal [2] was 2 z-score.

CAAAGGGGGAAGTGGAAGCA showed a binding signal (PU.1 (IVT)) of 5.32 z-score, a binding signal [1] of 5.21 z-score and a binding signal [2] of 2.43 z-score.

For TTATGAAGGAAGTGAAATTG, the binding signal (PU.1 (IVT)) was 2.45 z-score, the binding signal [1] was 2.65 z-score and the binding signal [2] was 1.96 z-score.

In the case of AGGCAGAGGAAGTGAGAATG, the binding signal (PU.1 (IVT)) is reported as 3.09 z-score, the binding signal [1] is reported as 2.97 z-score and the binding signal [2] is reported as 2.53 z-score.

Sequence AATGGCAGGAAGTGAAATCA has a binding signal (PU.1 (IVT)) of 2.15 z-score, a binding signal [1] of 2.31 z-score and a binding signal [2] of 4.21 z-score.

ACAAAAAGGAACTGAGCCCC was tested, and the binding signal (PU.1 (IVT)) was 1.98 z-score, the binding signal [1] was 2.16 z-score and the binding signal [2] was 0.761 z-score.

Sequence CAAATGAGGAACTGATGCTG has a binding signal (PU.1 (IVT)) of 5.63 z-score, a binding signal [1] of 6.42 z-score and a binding signal [2] of 2.08 z-score.

Sequence AAAATGAGGAAGTGCCGAGA has a binding signal (PU.1 (IVT)) of 7.79 z-score, a binding signal [1] of 7.33 z-score and a binding signal [2] of 3.74 z-score.

AGAGAGAGGAAGTCCCAAAG was tested, and the binding signal (PU.1 (IVT)) was 3.45 z-score, the binding signal [1] was 3.65 z-score and the binding signal [2] was 2.11 z-score.

In the case of CAAATGAGGACCTGATGCGG, the binding signal (PU.1 (IVT)) is reported as 0.267 z-score, the binding signal [1] is reported as 0.536 z-score and the binding signal [2] is reported as -0.774 z-score.

TCTTGGAGGAAGTGGGGGGA showed a binding signal (PU.1 (IVT)) of 2.85 z-score, a binding signal [1] of 2.89 z-score and a binding signal [2] of 2.3 z-score.

GAAAAGAGGAAATGGTCCTT was tested, and the binding signal (PU.1 (IVT)) was 5.98 z-score, the binding signal [1] was 6.46 z-score and the binding signal [2] was 3.24 z-score.

With TTAAAAGGGAAGTGAGAAGA the binding signal (PU.1 (IVT)) was 5.16 z-score, the binding signal [1] was 5.19 z-score and the binding signal [2] was 2.18 z-score.

GATATGAGGAAGTCCTCTGT gave a binding signal (PU.1 (IVT)) of 5.68 z-score, a binding signal [1] of 6.37 z-score and a binding signal [2] of 2.75 z-score.

AAAATGGGGAAGTCGTTGGA gave a binding signal (PU.1 (IVT)) of 7.56 z-score, a binding signal [1] of 7.23 z-score and a binding signal [2] of 3.09 z-score.

Work on TCTTTGAGGAAGTGAGTTTT yielded a binding signal (PU.1 (IVT)) of 5.74 z-score, a binding signal [1] of 6.06 z-score and a binding signal [2] of 2.81 z-score.

ACAAAAAGGAACTGCGCCCC was tested, and the binding signal (PU.1 (IVT)) was 1.46 z-score, the binding signal [1] was 1.72 z-score and the binding signal [2] was 0.971 z-score.

For AAAATGAGGAAGTGCTGGCA, the binding signal (PU.1 (IVT)) was 8.14 z-score, the binding signal [1] was 7.45 z-score and the binding signal [2] was 4.04 z-score.

Work on CAAATGGGGAAATGAGCCAC yielded a binding signal (PU.1 (IVT)) of 3.47 z-score, a binding signal [1] of 3.45 z-score and a binding signal [2] of 1.34 z-score.

In the case of TAGAACAGGAAGTGTTGAAA, the binding signal (PU.1 (IVT)) is reported as 5.2 z-score, the binding signal [1] is reported as 5.03 z-score and the binding signal [2] is reported as 5.01 z-score.

Work on CAAAAAGCGAAGTGGATGCT yielded a binding signal (PU.1 (IVT)) of 1.23 z-score, a binding signal [1] of 0.911 z-score and a binding signal [2] of 0.607 z-score.

AAAAAGAGGAACTTGGGCAT gave a binding signal (PU.1 (IVT)) of 8.01 z-score, a binding signal [1] of 7.21 z-score and a binding signal [2] of 3.42 z-score.

Sequence CAGAAAGGGAAGTGGATGCT has a binding signal (PU.1 (IVT)) of 5.22 z-score, a binding signal [1] of 5.32 z-score and a binding signal [2] of 2.21 z-score.

For AGAAAGTGGAAGTGGGAGGG, the binding signal (PU.1 (IVT)) was 3.27 z-score, the binding signal [1] was 3.35 z-score and the binding signal [2] was 1.77 z-score.

For CAGAAGAGGAAGTTCAGAAG, the binding signal (PU.1 (IVT)) was 6.7 z-score, the binding signal [1] was 6.72 z-score and the binding signal [2] was 3.31 z-score.

For TGTAAGAGGAACTGGTAAAG, the binding signal (PU.1 (IVT)) was 3.6 z-score, the binding signal [1] was 3.26 z-score and the binding signal [2] was 1.34 z-score.

ACAAAAAGGATCTGTGCCCC was tested, and the binding signal (PU.1 (IVT)) was -0.732 z-score, the binding signal [1] was -0.233 z-score and the binding signal [2] was -0.000778 z-score.

Sequence GAAAGAGGGAAGTGTATCTC has a binding signal (PU.1 (IVT)) of 4.87 z-score, a binding signal [1] of 5.15 z-score and a binding signal [2] of 1.74 z-score.

TTACTGAGGAACTGCCAGAC gave a binding signal (PU.1 (IVT)) of 1.62 z-score, a binding signal [1] of 1.46 z-score and a binding signal [2] of 0.464 z-score.

With TCAAAGGGGAAGTGAGAAAA the binding signal (PU.1 (IVT)) was 5.37 z-score, the binding signal [1] was 6.09 z-score and the binding signal [2] was 2.99 z-score.

In the case of AGAAGGAGGAAGTGAGTTAG, the binding signal (PU.1 (IVT)) is reported as 5.95 z-score, the binding signal [1] is reported as 6.5 z-score and the binding signal [2] is reported as 3.49 z-score.

Sequence CCAATGAGGAACTGATGCGG has a binding signal (PU.1 (IVT)) of 4.47 z-score, a binding signal [1] of 4.55 z-score and a binding signal [2] of 1.35 z-score.

Work on AGAAAAAGGAACTGGCTAGA yielded a binding signal (PU.1 (IVT)) of 3.75 z-score, a binding signal [1] of 3.31 z-score and a binding signal [2] of 1.35 z-score.
